Assay results: publication PMC6051341, “Sequential binding of ezrin and moesin to L-selectin regulates monocyte protrusive behaviour during transendothelial migration” (Journal of Cell Science, 2018)

Biological target: T1, WT L-selectin–GFP (human, UniProt P14151 39-372)
T1 construct: L-selectin, human; generated as previously described (Rzeniewicz et al., 2015); GFP on the C-terminal tail; also called L-sel-GFP; human L-selectin-GFP; source: THP-1 cells, lentiviral expression, in fixed cells; not shown: GFP, C-terminal, kept
T1 sequence (looked up): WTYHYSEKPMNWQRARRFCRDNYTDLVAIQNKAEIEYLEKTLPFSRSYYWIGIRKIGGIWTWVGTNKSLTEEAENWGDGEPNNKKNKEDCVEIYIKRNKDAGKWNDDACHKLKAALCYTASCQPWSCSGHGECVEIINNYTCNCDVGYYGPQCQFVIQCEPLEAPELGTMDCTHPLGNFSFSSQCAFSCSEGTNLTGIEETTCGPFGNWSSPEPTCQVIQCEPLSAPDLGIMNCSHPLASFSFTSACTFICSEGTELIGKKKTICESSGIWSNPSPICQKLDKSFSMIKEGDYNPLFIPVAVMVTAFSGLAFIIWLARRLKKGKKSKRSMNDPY
Assay: FRET or BRET; FLIM measurement of FRET between GFP (donor, on L-selectin) and RFP (on the ERM protein); unchallenged THP-1 cells seeded onto poly-L-lysine-coated coverslips for 10 min at 37°C, fixed
Details: partners not purified

B1: ezrin–RFP (natural protein, human)
chain: [left out - about 300 residues]PDTIEVQQMKAQAREEKHQKQLERQQLETEKKRRETVEREKEQMMREKEELMLRLQDYEEKTKKAERELSEQIQRALQLEEERKRAQEEAERLEADRMAALRAKEELERQAVDQIKSQEQLAAELAEYTAKIALLEEARRRKEDEVEEWQHRAKEAQDDLVKTKEELHLVMTAPPPPPPPVYEPVSYHVQESLQDEGAEPTGYSAELSSEGIRDDRNEEKRITEAEKNERVQRQLLTLSSELSQARDENKRTHNDIIHNENMRQGRDKYKTLRQIRQGNTKQRIDEFEAL
notes: ezrin, human, open reading frame in the pHR'SIN-SEW lentiviral vector; also called Ezr-RFP; source: THP-1 cells (ezrin-knockdown), lentiviral expression, in fixed cells; not shown: RFP, C-terminal, kept
With B1 the “fold FRET efficiency against moesin with the same L-selectin (unchallenged cells)” value was 1.7 fold.
